Experimental data taken from a collection of fitness landscapes (doi:10.1016/j.celrep.2020.107928).
The full ranking holds about 81,000 sequences; the median of “one-hybrid fitness for binding NBS DNA” is about -0.1, and the highest 2% start at about 0.36. The list shows a part of the results.

B1: Caulobacter ParB omega fusion; a variant is named by its letters at X, in order, B8GW30 (parent)
chain: MESVVVGEPGMSEGRRGLGRGLSALLGEVDAAPAQAPGEQLGGSREAPIEILQRNPDQPRRTFREEDLEDLSNSIREKGVLQPILVRPSPDTAGEYQIVAGERAWRAAQRAGLKTVPIMVRELDDLAVLEIGIIENVQRADLNVLEEALSYKVLMEKFERTQENIAQTIGKSXSHVANXMRLLXLPDEVQSYLVSGELTAXHARAIAAAADPVALAKQIIEGGLSVRETEALARKAPNLSAGKSKGGRPPRVKDTDTQALESDLSSVLGLDVSIDHRGSTGTLTITYATLEQLDDLCNRLTRGI

Variants of: B1
Test: one-hybrid fitness for binding NBS DNA (the Noc-binding site; scaled: cognate 1, non-cognate 0); higher = stronger binding
Settings: with NBS DNA site
Method in brief: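 In E. coli USO, a HIS3 reporter with its site placed 19 bp from the promoter was used to select Caulobacter ParB variants randomised at four specificity codons. Growth lasted 48 hours at 37°C on histidine-free M9 containing 0.1 mM IPTG and 5 mM 3-AT. Fitness was taken as the log change in variant-to-wild-type read ratio from Illumina sequencing of pre- and post-selection plasmids, rescaled between the non-cognate and cognate sites.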

| Variant | one-hybrid fitness for binding NBS DNA |
| --- | --- |
| RRHC | 0.363 |
| NAEG | ≤ 0.2 |
| QPEF | ≤ 0.2 |
| FNSG | ≤ 0.2 |
| WLMG | ≤ 0.2 |
| FAGS | ≤ 0.2 |
| KDTR | ≤ 0.2 |
| RRWN | 0.222 |
| SNQR | ≤ 0.2 |
| NNRG | ≤ 0.2 |
| NLVS | ≤ 0.2 |
| TAYY | ≤ 0.2 |
| DGGV | ≤ 0.2 |
| DVMT | ≤ 0.2 |
| APQF | ≤ 0.2 |
| QKTH | 0.241 |
| LMWR | ≤ 0.2 |
| WDMG | ≤ 0.2 |
| SKPL | ≤ 0.2 |
| CCNL | ≤ 0.2 |
| YYSS | ≤ 0.2 |
| EKQF | ≤ 0.2 |
| AYPN | ≤ 0.2 |
| QVQI | ≤ 0.2 |
| ATYV | ≤ 0.2 |
| LIYI | ≤ 0.2 |

| Variant | one-hybrid fitness for binding NBS DNA |
| --- | --- |
| TQTK | ≤ 0.2 |
| SIMR | ≤ 0.2 |
| RCIF | ≤ 0.2 |
| NDRI | ≤ 0.2 |
| RLQF | ≤ 0.2 |
| QCDT | 0.369 |
| QRRF | 0.418 |
| NSDT | ≤ 0.2 |
| DRRR | 0.215 |
| TNCK | ≤ 0.2 |
| LSNQ | ≤ 0.2 |
| LSTE | ≤ 0.2 |
| AYSI | ≤ 0.2 |
| ACKL | ≤ 0.2 |
| GRCF | ≤ 0.2 |
| SEAR | ≤ 0.2 |
| VNYT | ≤ 0.2 |
| GCWG | ≤ 0.2 |
| NCYS | ≤ 0.2 |
| YCIG | ≤ 0.2 |
| EPSR | ≤ 0.2 |
| AREW | ≤ 0.2 |
| DGQR | ≤ 0.2 |
| QRHD | 0.294 |
| FLTY | ≤ 0.2 |
| QTST | 0.61 |

| Variant | one-hybrid fitness for binding NBS DNA |
| --- | --- |
| IYNC | ≤ 0.2 |
| ASET | ≤ 0.2 |
| NINS | ≤ 0.2 |
| RFTV | ≤ 0.2 |
| RIRF | ≤ 0.2 |
| PWEK | ≤ 0.2 |
| SIAA | ≤ 0.2 |
| HMLI | ≤ 0.2 |
| ECPG | ≤ 0.2 |
| VFVV | ≤ 0.2 |
| CGTR | ≤ 0.2 |
| HEIA | ≤ 0.2 |
| RNFT | ≤ 0.2 |
| RPVF | ≤ 0.2 |
| SFAS | ≤ 0.2 |
| NMPL | ≤ 0.2 |
| GNGS | ≤ 0.2 |
| QSIA | ≤ 0.2 |
| AGIE | ≤ 0.2 |
| DGER | ≤ 0.2 |
| RIAI | ≤ 0.2 |
| RMLY | ≤ 0.2 |
| APRE | ≤ 0.2 |
| RQRC | 0.307 |
| EGGY | ≤ 0.2 |
| WAPL | ≤ 0.2 |

| Variant | one-hybrid fitness for binding NBS DNA |
| --- | --- |
| RYEG | ≤ 0.2 |
| KAKS | ≤ 0.2 |
| AVCT | ≤ 0.2 |
| GHQC | ≤ 0.2 |
| NVVW | ≤ 0.2 |
| AKKY | ≤ 0.2 |
| HCIR | ≤ 0.2 |
| GKFG | ≤ 0.2 |
| RTRH | 0.536 |
| RHIT | 0.243 |
| DFKC | ≤ 0.2 |
| PDSL | ≤ 0.2 |
| FRYT | ≤ 0.2 |
| WHPS | ≤ 0.2 |
| TLQS | ≤ 0.2 |
| HPKI | ≤ 0.2 |
| FESR | ≤ 0.2 |
| EWTR | ≤ 0.2 |
| TDTT | ≤ 0.2 |
| KFCG | ≤ 0.2 |
| RSAI | ≤ 0.2 |
| YMDG | ≤ 0.2 |
| DRTE | ≤ 0.2 |
| ISDC | ≤ 0.2 |
| GERY | ≤ 0.2 |
| WPVG | ≤ 0.2 |

| Variant | one-hybrid fitness for binding NBS DNA |
| --- | --- |
| YPRY | ≤ 0.2 |
| AKHG | ≤ 0.2 |
| GSLL | ≤ 0.2 |
| EEAD | ≤ 0.2 |
| VPSM | ≤ 0.2 |
| SIMC | ≤ 0.2 |
| ENMS | ≤ 0.2 |
| DIIN | ≤ 0.2 |
| ISHY | ≤ 0.2 |
| EFFS | ≤ 0.2 |
| PNLW | ≤ 0.2 |
| RGDM | ≤ 0.2 |
| SSWS | ≤ 0.2 |
| SMIS | ≤ 0.2 |
| VMHH | ≤ 0.2 |
| QAWD | ≤ 0.2 |
| RDHV | ≤ 0.2 |
| SCNF | ≤ 0.2 |
| SKSF | ≤ 0.2 |
| NHSP | ≤ 0.2 |
| PFQY | ≤ 0.2 |
| AGES | ≤ 0.2 |
| MAGR | ≤ 0.2 |
| DNSL | ≤ 0.2 |
| AHNK | ≤ 0.2 |
| VSRC | ≤ 0.2 |

| Variant | one-hybrid fitness for binding NBS DNA |
| --- | --- |
| EVQC | ≤ 0.2 |
| RFCK | ≤ 0.2 |
| GDLV | ≤ 0.2 |
| RGFC | ≤ 0.2 |
| YIHF | ≤ 0.2 |
| RKHW | ≤ 0.2 |
| TNRT | ≤ 0.2 |
| ELEM | ≤ 0.2 |
| QAHD | ≤ 0.2 |
| PDNT | ≤ 0.2 |
| GGLT | ≤ 0.2 |
| RLNS | 0.493 |
| PNYT | ≤ 0.2 |
| HAVV | ≤ 0.2 |
| SLMV | ≤ 0.2 |
| PSCE | ≤ 0.2 |
| VCHT | ≤ 0.2 |
| LSAP | ≤ 0.2 |
| ARSL | ≤ 0.2 |
| ENLA | ≤ 0.2 |
| VCCT | ≤ 0.2 |
| KKYD | ≤ 0.2 |
| HWHG | ≤ 0.2 |
